# The other results are listed elsewhere or left out.
# System: T1, Caupolican (Caup) homeodomain DNA-binding domain
# T1 sequence: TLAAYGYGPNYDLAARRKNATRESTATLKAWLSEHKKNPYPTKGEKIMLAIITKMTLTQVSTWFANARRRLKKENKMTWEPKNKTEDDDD
# Assay: PBM E-score (8-mer, recovered from the published 9-mer minima) (E-score (dimensionless, -0.5 to 0.5)); Drosophila protein; higher = stronger relative binding preference, active = 0.31 or more
# Summary of the method: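 An enrichment score, with higher meaning stronger, expresses relative binding preference for each short DNA word. The protein used was Caup's homeodomain DNA-binding domain (residues 214-303), produced by in vitro transcription and translation and tested at 100 nM on custom-designed protein binding microarrays. The 8-mer values were recovered from published 9-mer scores, each equal to the lower of its two constituent 8-mer scores.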
row,Sequence,PBM E-score
1,GTGCACAC,inactive: 0.016
2,CAACAAAC,inactive: 0.176
3,TAGCCCAA,inactive: -0.0852
4,GAACTATC,inactive: -0.0241
5,CTAATCCA,inactive: -0.003
6,AGCAAGAT,inactive: 0.097
7,AACGGGTC,inactive: -0.187
8,CTCTTGAC,inactive: 0.0391
9,CTCCCTTC,inactive: -0.184
10,GACGCGAC,inactive: -0.084
11,GTTTTGTA,inactive: 0.197
12,GCGAATCC,inactive: -0.124
13,ACCCGACT,≥ 0.0154
14,AAGCCGAG,inactive: -0.218
15,CGTACATA,active: 0.336
16,ACGAGAGG,inactive: -0.0983
17,AATACAGA,inactive: 0.18
18,TACTTCTA,≥ 0.121
19,GGCTGACA,inactive: 0.0801
20,CATTCGGC,inactive: -0.0463
21,TCTATTCA,inactive: 0.136
22,AGCGGTCA,inactive: -0.113
23,TCCGCGCA,≥ -0.0683
24,AGATGGCA,inactive: 0.0111
25,ACGATTAA,inactive: 0.0321
26,ACCTGAGC,inactive: -0.0467

row,Sequence,PBM E-score
1,ACGGCCTA,≥ -0.041
2,AAAGGTGG,inactive: -0.0535
3,CGGTGCCA,inactive: -0.31
4,CTGCGCGC,inactive: -0.182
5,GTATTACA,inactive: 0.288
6,AACTATCA,inactive: 0.108
7,AAAGCCCG,inactive: -0.156
8,TACCTGAA,inactive: 0.157
9,ACAGACCC,inactive: -0.0272
10,AGTGGATG,inactive: 0.0539
11,AACAAGAA,active: 0.321
12,AATTACCG,inactive: 0.0136
13,AACATTCG,inactive: 0.152
14,GTTCAGAA,inactive: 0.0829
15,AATCATAG,inactive: 0.129
16,ATATTGAA,inactive: 0.11
17,CAAACGAG,inactive: 0.111
18,CAACAGCA,inactive: 0.0674
19,CAGCGGAG,inactive: -0.162
20,ACCTTCGC,inactive: -0.126
21,CACGAGTC,inactive: 0.00034
22,CTCTAATC,inactive: -0.00615
23,GACCGGAC,inactive: -0.106
24,AGCTGCGA,inactive: -0.146
25,GCCATTCA,inactive: -0.111
26,GCTGATGA,inactive: 0.0175

row,Sequence,PBM E-score
1,ATTCTTTG,inactive: 0.0835
2,ATTAAGGA,inactive: -0.0472
3,ATCCCCAC,inactive: -0.0707
4,ATGTCTTC,inactive: 0.196
5,CCAGGGAC,inactive: -0.134
6,ACCCAAAC,inactive: -0.00737
7,CTAGTGAA,inactive: 0.0255
8,CCGACTAC,inactive: -0.0301
9,ATCGACGA,inactive: 0.0131
10,CACCACTG,inactive: -0.105
11,CTTGCGCC,inactive: -0.178
12,CAGGTCCA,inactive: 0.0178
13,ACGAAGCG,inactive: -0.0848
14,GTGACCGA,inactive: -0.0686
15,GACCGACC,inactive: -0.0698
16,GGTAGACC,inactive: -0.103
17,AGTACGTA,inactive: 0.182
18,CAAAGTGG,inactive: -0.127
19,GTTCGTGA,inactive: 0.0372
20,AGCGCCCT,inactive: -0.187
21,AAGAGGCC,inactive: -0.216
22,CAGCATAG,inactive: 0.0339
23,CAGAGTCG,inactive: -0.0689
24,AGGTCTTA,inactive: 0.0249
25,ATGTAAAG,active: 0.317
26,CGCCATAG,inactive: -0.136

row,Sequence,PBM E-score
1,ATAGCACC,inactive: -0.0186
2,CGGCCATA,inactive: -0.124
3,ACGCAATG,inactive: 0.0404
4,CTCGGCGC,inactive: -0.213
5,CACGGTGA,inactive: 0.0751
6,GAGACCTC,inactive: -0.172
7,AACCGTGA,inactive: 0.0248
8,ACACACGC,inactive: 0.205
9,CGCCAAGC,inactive: -0.21
10,ACCTCGCA,≥ -0.0388
11,CGGCTCTA,≥ -0.0637
12,ACCAATAT,≥ 0.149
13,AAGGAGTG,inactive: -0.0683
14,ATGTACCG,inactive: 0.287
15,CAGACTAA,inactive: 0.0303
16,AAGAGACG,inactive: -0.0512
17,AGTACGCA,inactive: 0.0016
18,ACTTGTTG,inactive: 0.29
19,CTTACCCC,inactive: -0.277
20,CTCAGAAA,inactive: -0.0399
21,ATTATGGG,inactive: 0.0116
22,CATGACGC,inactive: 0.032
23,ACTTCTGC,inactive: -0.00527
24,CCCCCTCG,inactive: -0.329
25,GTCTGCTA,≥ 0.0631
26,ATAGAATA,≥ 0.185

row,Sequence,PBM E-score
1,AAGGAGGC,inactive: -0.198
2,CAAGACCA,inactive: 0.042
3,CAGGAGAG,inactive: -0.0531
4,AGGGTGTC,inactive: 0.041
5,AGAGCAAA,inactive: 0.0279
6,CCAAGAGG,inactive: -0.13
7,AGAGATAC,inactive: 0.0674
8,ATCTATCA,inactive: 0.118
9,CTGCAACA,inactive: 0.104
10,CCTGTGTA,inactive: 0.283
11,AAGATATA,inactive: 0.172
12,CCCTCGAC,inactive: -0.156
13,CGCGGGGA,inactive: -0.136
14,ACCCGTAA,inactive: 0.045
15,AATACTAT,inactive: 0.157
16,GCAAAACA,inactive: 0.138
17,GTCATTCA,inactive: 0.0789
18,GTACGTAC,inactive: 0.164
19,GACTTGGC,inactive: -0.165
20,GAGCCTTA,inactive: -0.104
21,ATGACAAG,active: ≥ 0.378
22,CGTCGGCC,inactive: -0.224
23,CGGACCCG,inactive: -0.218
24,ACCTCATC,inactive: -0.077
25,CGGGCTTA,inactive: -0.126
26,AACTGTAA,inactive: 0.197

row,Sequence,PBM E-score
1,CCCGGAAC,inactive: -0.104
2,GAGGCCGC,inactive: -0.208
3,CTACCATC,inactive: -0.0129
4,ATCTCATA,inactive: 0.0234
5,AGAGCTTA,inactive: -0.126
6,CGCATTAC,inactive: 0.118
7,GCTGCACC,inactive: -0.174
8,CGTTCGGC,inactive: -0.137
9,ATCGACAT,inactive: 0.294
10,CGGTTTTC,inactive: -0.0481
11,ATGTAGGA,inactive: 0.187
12,AGTATATC,inactive: 0.112
13,AAAAGAGC,inactive: -0.055
14,CGTAACTA,inactive: 0.111
15,ATCATACC,inactive: 0.108
16,GAAGGCGA,inactive: -0.199
17,GTTATGCA,inactive: 0.033
18,ATTATCTA,≥ 0.163
19,AAAAAACA,inactive: 0.21
20,ACCCGGAC,inactive: -0.125
21,GACATGTC,active: 0.437
22,GGATCCGA,inactive: -0.119
23,GGCTACCC,inactive: -0.239
24,CCTGAGAA,inactive: 0.0467
25,TCAGTCGA,inactive: 0.00191
26,AAGAAACG,inactive: 0.022

row,Sequence,PBM E-score
1,CCCGTGTA,inactive: 0.25
2,AGTTGTTG,inactive: 0.183
3,CCTGCCTA,inactive: -0.0608
4,CAGAGCGG,inactive: -0.155
5,ATATACTA,inactive: 0.183
6,CGAGCCAA,inactive: -0.0569
7,CCACGGAC,inactive: -0.139
8,GTCGCCTA,inactive: -0.16
9,AGCGAGCA,inactive: -0.0559
10,AATACGCA,inactive: 0.0736
11,ACGCGGGC,inactive: -0.174
12,AGGTATTC,inactive: 0.0546
13,ACACCAGG,inactive: 0.0474
14,CTCGCTCC,inactive: -0.194
15,AAATCAAC,inactive: 0.0931
16,ACGTCACC,inactive: -0.0492
17,CGATAATC,inactive: -0.0505
18,ATGTCCAC,inactive: 0.222
19,GACCGTAC,inactive: 0.04
20,CACTGAAA,inactive: 0.0226
21,CAAGTCCC,inactive: -0.072
22,GTGGGACA,inactive: 0.116
23,CTAGGCCC,inactive: -0.184
24,CATAGCCA,inactive: -0.0493
25,AGTCGCTA,inactive: 0.0418
26,GATTACAC,active: 0.318

row,Sequence,PBM E-score
1,ATATTATC,inactive: 0.176
2,ACCTTCAC,inactive: 0.0228
3,GCAAGGGA,inactive: -0.118
4,AGCGGGTG,inactive: -0.171
5,GGACACGA,inactive: 0.23
6,GGGTTTGA,inactive: -0.032
7,GTGTGTCA,active: ≥ 0.312
8,ATTTCGGA,inactive: 0.0085
9,AGGGCTGC,inactive: -0.264
10,GAAACCCC,inactive: -0.174
11,CATCAGAA,inactive: 0.146
12,ACCGGACT,inactive: -0.166
13,CAGCGATG,inactive: -0.072
14,GAGCCAAC,inactive: -0.122
15,GAGTTGAC,inactive: 0.0345
16,CAGTCCTA,≥ 0.0649
17,AGCAAGAA,inactive: 0.027
18,AGTTCCCG,inactive: -0.15
19,CGCTTCCG,inactive: -0.177
20,AACTAGGC,inactive: -0.0263
21,GTCTGCAC,inactive: -0.0441
22,TAGCTGAA,inactive: 0.0122
23,ATGGCCTG,inactive: -0.0675
24,AAAGAGCC,inactive: -0.195
25,CTTTGCTC,inactive: -0.0311
26,AGCTTAAG,inactive: -0.0765

row,Sequence,PBM E-score
1,ATGAGATG,inactive: 0.069
2,ACATCACG,inactive: 0.217
3,ACCGCCCC,inactive: -0.199
4,TACACTAA,inactive: 0.198
5,GCTATATA,inactive: 0.151
6,CGATCAAC,inactive: 0.047
7,CCCCGCTC,inactive: -0.249
8,ACGGTCCA,inactive: -0.112
9,CGGTATTA,inactive: 0.034
10,GAACGTCA,inactive: -0.0664
11,GGAAGAGA,inactive: -0.0897
12,CCGCCAGC,inactive: -0.217
13,AGGATGAC,inactive: -0.011
14,ATGGTCGA,inactive: 0.00221
15,ACAGATGG,inactive: 0.0732
16,GGAGACTA,inactive: -0.0327
17,ATTGAGTA,≥ 0.139
18,CAGAAGGC,inactive: -0.142

# From the supplement of paper PMC3724861
